Results reported in patent US20020013306A1, “TERPYRIDINE-PLATINUM(II) COMPLEXES” (priority 1996, published 2002).

Assays:
[1] = tested on: L. donovani (MHOM/ET/67/L82) amastigotes; experiment: Leishmania donovani amastigotes in mouse peritoneal macrophages
Method: Leishmania: L. donovani (MHOM/ET/67/L82) amastigotes, derived from hamster spleen were used to infect mouse peritoneal macrophages in Labtek chamber slides. Infected macrophages were maintained in the presence of the drug at 30 μM and 3 μM in quadruplicate cultures for 5 days at 37° C. Drug activity is measured from % macrophages cleared of amastigotes in treated cultures. Sodium stibogluconate was used as the positive control.
The assays follow those outlined in Screen 1- Protocol 1 but include a range of doses in a dilution series from 30 μM. Dose response curves were analysed by linear regression and ED50 values determined. T. brucei numbers/ml are determined using a Coulter Counter.

[2] = Acid/base stability by NMR; details: trifluoroacetic acid in deuterated methanol; immediately and 1, 2, 4, 24 hours
Method: Diethylamine (2 ml) was added to a solution of 4′-aziridinoterpyridine (5 mg) in deuterated chloroform in a NMR tube.
Trifluoroacetic acid (5 g) was added to a solution of 4′-aziridinoterpyridine (15 mg) in deuterated methanol in an NMR tube. NMR spectra were recorded immediately and after 1, 2, 4 and 24 hours.

| Compound | % Inhibition, Leishmania donovani ([1]; 1 μM) | % Inhibition, Leishmania donovani ([1]; 3 μM) | % Inhibition, Leishmania donovani ([1]; 10 μM) | % Inhibition, Leishmania donovani ([1]; 30 μM) | stability to acid [2] | % Inhibition, Leishmania donovani ([1]; 1 μM, listed as 12, 1 µM) |
| --- | --- | --- | --- | --- | --- | --- |
| 4-Picoline 4′-amino-2,2′:6′,2″-terpyridine platinum II tetrafluoroborate [X] | 0% | 100% | 100% | 100% | – | – |
| c1ccc(-c2cc(N3CC3)cc(-c3ccccn3)n2)nc1 [4′-aziridinoterpyridine, 4′-Aziridino-2,2′:6′,2″-Terpyridine] | – | – | – | – | susceptible to nucleophilic attack in the presence of H^+ | – |
| Cc1ccncc1.F[B-](F)(F)F.F[B-](F)(F)F.[Pt+2].c1ccc(-c2cccc(-c3ccccn3)n2)nc1 [A, 4-picoline-2,2′:6′:2″-terpyridine-platinum(II) tetrafluoroborate] | 0.5% | 4.5% | 1.2% | – | – | – |
| Brc1cc[n+]([Pt-2]23[n+]4ccccc4-c4cccc([n+]42)-c2cccc[n+]23)cc1.F[B-](F)(F)F.F[B-](F)(F)F [Compound A1] | 0% | 0% | 0.2% | – | – | – |
| CC(=O)c1cc[n+]([Pt-2]23[n+]4ccccc4-c4cccc([n+]42)-c2cccc[n+]23)cc1.F[B-](F)(F)F.F[B-](F)(F)F [Compound A2] | 0% | 0.2% | 27.0% | 45.5% | – | – |
| CN(C)c1cc[n+]([Pt-2]23[n+]4ccccc4-c4cccc([n+]42)-c2cccc[n+]23)cc1.F[B-](F)(F)F.F[B-](F)(F)F [Compound A3] | 0% | 0% | 11.6% | 97.5% | – | – |
| F[B-](F)(F)F.F[B-](F)(F)F.Fc1cccc[n+]1[Pt-2]12[n+]3ccccc3-c3cccc([n+]31)-c1cccc[n+]12 [Compound A4] | 0% | 0% | 31.5% | 100% | – | – |
| F[B-](F)(F)F.F[B-](F)(F)F.Fc1ccc[n+]([Pt-2]23[n+]4ccccc4-c4cccc([n+]42)-c2cccc[n+]23)c1 [Compound A5] | 0% | 0% | 44.9% | 96.9% | – | – |
| F[B-](F)(F)F.F[B-](F)(F)F.c1cc[n+]2c(c1)-c1cccc3[n+]1[Pt-2]2([n+]1ccsc1)[n+]1ccccc1-3 [Compound A6] | 0% | 2.1% | 30.8% | – | – | – |
| CC#[N+][Pt-2]12[n+]3ccccc3-c3cccc([n+]31)-c1cccc[n+]12.F[B-](F)(F)F.F[B-](F)(F)F [Compound A8] | 0% | 3.9% | 82.8% | 100% | – | – |
| F[B-](F)(F)F.F[B-](F)(F)F.OCc1cc[n+]([Pt-2]23[n+]4ccccc4-c4cccc([n+]42)-c2cccc[n+]23)cc1 [Compound A9] | 0% | 0.8% | 61.5% | – | – | – |
| F[B-](F)(F)F.F[B-](F)(F)F.[NH3+][Pt-2]12[n+]3ccccc3-c3cccc([n+]31)-c1cccc[n+]12 [Compound A12] | 5.0% | 27.5% | 91.7% | 90.1% | – | – |
| [Cl-].[Cl-].[Pt+2].c1ccc(-c2cccc(-c3ccccn3)n2)nc1 [Compound A13, chloro(2,2′:6′,2″-terpyridine)platinum(II) chloride] | 0% | 22.0% | 94.9% | 99.1% | – | – |
| Brc1ccc(-c2cc(-c3ccccn3)nc(-c3ccccn3)c2)cc1.F[B-](F)(F)F.F[B-](F)(F)F.N.[Pt+2] [Compound Q12, Ammonio 4′-(4-bromophenyl)-2,2′:6′,2″-terpyridine platinum II tetrafluoroborate] | – | 100% | 100% | 100% | – | – |
| Cc1cc[n+]([Pt-2]23[n+]4ccccc4-c4cc(Cl)cc([n+]42)-c2cccc[n+]23)cc1.F[B-](F)(F)F.F[B-](F)(F)F [I] | 2.5% | 47.9% | 89.5% | 93.3% | – | – |
| Cc1cc[n+]([Pt-2]23[n+]4ccccc4-c4cc(-c5ccc(Br)cc5)cc([n+]42)-c2cccc[n+]23)cc1.F[B-](F)(F)F.F[B-](F)(F)F [Q] | 31.4% | 99.8% | 100% | 100% | – | – |
| Cc1ccncc1.F[B-](F)(F)F.F[B-](F)(F)F.NNc1cc(-c2ccccn2)nc(-c2ccccn2)c1.[Pt+2] [R, (4-Picoline)(4′-Hydrazino-2,2′:6′,2″-Terpyridine) Platinum (II) Tetrafluoroborate] | 0% | 0% | 0% | – | – | – |
| CN(N)c1cc(-c2ccccn2)nc(-c2ccccn2)c1.Cc1ccncc1.F[B-](F)(F)F.F[B-](F)(F)F.[Pt+2] [S, (4-Picoline)(4′-(1 -Methylhydrazino)-2,2′:6′,2″-Terpyridine) Platinum (II) Tetra-fluoroborate] | 0% | 0% | 0% | 0% | – | – |
| Cc1ccncc1.F[B-](F)(F)F.F[B-](F)(F)F.[Pt+2].c1ccc(-c2cc(N3CC3)cc(-c3ccccn3)n2)nc1 [T, (4-Picoline)(4′-Aziridino-2,2′:6′,2″-Terpyridine) Platinum (II) Tetra-fluoroborate] | 0% | 0% | – | – | – | – |
| Cc1ccncc1.F[B-](F)(F)F.F[B-](F)(F)F.OCCNc1cc(-c2ccccn2)nc(-c2ccccn2)c1.[Pt+2] [U, (4-Picoline)(4′-(N-2-Hydroxyethyl)amino-2,2′:6′,2″-Terpyridine) Platinum (II) Tetrafluoroborate] | 0% | 0% | 0% | – | – | – |
| Cc1ccncc1.Cc1ccncc1.F[B-](F)(F)F.F[B-](F)(F)F.F[B-](F)(F)F.F[B-](F)(F)F.O=C(CCCCC(=O)NNc1cc(-c2ccccn2)nc(-c2ccccn2)c1)NNc1cc(-c2ccccn2)nc(-c2ccccn2)c1.[Pt+2].[Pt+2] [V, Adipoyl-Linked-Bis[4-Picoline(4′-Hydrazino-2,2′:6′,2″-Terpyridine) Platinum(II)] Tetrafluoroborate] | 0% | 0% | 0% | 0% | – | – |
| CN(NC(=O)CCCCC(=O)NN(C)c1cc(-c2ccccn2)nc(-c2ccccn2)c1)c1cc(-c2ccccn2)nc(-c2ccccn2)c1.Cc1ccncc1.Cc1ccncc1.F[B-](F)(F)F.F[B-](F)(F)F.F[B-](F)(F)F.F[B-](F)(F)F.[Pt+2].[Pt+2] [W, Adipoyl-Linked-Bis[4-Picoline(4′-(1 -Methylhydrazino)-2,2′:6′,2″-Terpyridine) Platinum(II)] Tetrafluoroborate] | 0% | 0% | 0% | 0% | – | – |
| Ammonio 4′-chloro-2,2′:6′,2″-terpyridine platinum II tetrafluoroborate [Compound I12] | 99% | 99% | 100% | 100% | – | completely cleared |
